Changes are numbered by the printed parent chain. These are yes or no findings as the source states them, for the method shown. Binding seen in cells or lysates may run through a third protein. Some entries that bind do so weakly or less than the wild type. For part of these data: Where a sequence is shown, tags or fusion partners need not be part of it.
Tests used:
Test in all cases: pull-down; GST fusion proteins on GSH-sepharose beads incubated with pre-cleared rat brain synaptosomal lysate (20 mM Tris pH 7.4, 150 mM NaCl, 1% Triton X-100, 1 mM EDTA, 1 mM EGTA) at 4 °C for 1 h; bound proteins by Coomassie stain or Western blot (some blots quantified by densitometry); only the target purified
[1] = target: T1, GST-dyn1xA-PRR 806-864 G842A (rat) (UniProt P21575)
T1 sequence: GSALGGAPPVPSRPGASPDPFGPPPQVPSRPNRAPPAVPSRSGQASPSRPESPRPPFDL

Chains of the proteins cited; added tags and fusions are not shown.
UniProt O35179: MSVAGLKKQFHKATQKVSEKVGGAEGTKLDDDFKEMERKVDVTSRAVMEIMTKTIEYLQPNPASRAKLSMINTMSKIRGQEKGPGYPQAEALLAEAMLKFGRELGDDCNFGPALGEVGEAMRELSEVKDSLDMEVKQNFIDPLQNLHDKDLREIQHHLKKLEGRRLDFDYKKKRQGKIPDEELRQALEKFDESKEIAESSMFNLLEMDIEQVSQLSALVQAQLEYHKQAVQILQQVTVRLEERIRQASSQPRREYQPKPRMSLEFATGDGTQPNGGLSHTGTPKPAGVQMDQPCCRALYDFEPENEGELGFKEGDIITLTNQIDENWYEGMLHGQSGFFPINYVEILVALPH
UniProt Q9Z0W5: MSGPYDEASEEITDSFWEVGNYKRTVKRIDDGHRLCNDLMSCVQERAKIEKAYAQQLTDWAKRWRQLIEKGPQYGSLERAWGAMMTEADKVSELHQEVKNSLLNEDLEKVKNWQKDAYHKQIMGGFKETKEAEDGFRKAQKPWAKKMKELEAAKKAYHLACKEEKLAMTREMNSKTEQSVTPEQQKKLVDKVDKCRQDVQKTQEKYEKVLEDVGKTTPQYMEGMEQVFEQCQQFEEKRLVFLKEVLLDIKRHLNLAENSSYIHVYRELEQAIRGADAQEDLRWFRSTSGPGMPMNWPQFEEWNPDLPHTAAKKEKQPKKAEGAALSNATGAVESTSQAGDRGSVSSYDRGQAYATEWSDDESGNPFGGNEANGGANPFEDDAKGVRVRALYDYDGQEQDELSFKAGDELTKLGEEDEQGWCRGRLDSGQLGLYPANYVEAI

[2] = target: T2, GST-dyn1xA-PRR 806-864 A839G (rat) (UniProt P21575)
T2 sequence: T1 sequence with A34G, A37G

[3] = target: T3, GST-dyn1xA-PRR 806-864 P813/816A (rat) (UniProt P21575)
T3 sequence: T1 sequence with P8A, P11A, A37G

[4] = target: T4, GST-dyn1xA-PRR P813/816A (rat) (UniProt P21575)
T4 sequence: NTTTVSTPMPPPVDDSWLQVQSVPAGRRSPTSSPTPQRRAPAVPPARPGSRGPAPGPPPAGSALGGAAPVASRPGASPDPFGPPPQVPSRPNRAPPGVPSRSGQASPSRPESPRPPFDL

[5] = target: T5, GST-dyn1xA-PRR P844A (rat) (UniProt P21575)
T5 sequence: T4 sequence with A68P, A71P, P99A

[6] = target: GST-Dyn1xA-PRR (dynamin 1xA proline-rich region, amino acids 746-864) (rat) (UniProt P21575)
[7] = target: T6, GST-dyn1xA-PRR 806-864 P833/836A (rat) (UniProt P21575)
T6 sequence: T1 sequence with P28A, P31A, A37G

[8] = target: T7, GST-dyn1xA-PRR P841/844A (rat) (UniProt P21575)
T7 sequence: T4 sequence with A68P, A71P, P96A, P99A

[9] = target: T8, GST-dyn1xA-PRR S851/857E (rat) (UniProt P21575)
T8 sequence: T4 sequence with A68P, A71P, S106E, S112E

[10] = target: T9, GST-Dyn1xA-PRR 794-864 (rat) (UniProt P21575)
T9 sequence: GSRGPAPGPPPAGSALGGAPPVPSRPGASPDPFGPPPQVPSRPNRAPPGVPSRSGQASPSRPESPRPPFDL

[11] = target: T10, GST-Dyn1xA-PRR 806-864 (rat) (UniProt P21575)
T10 sequence: T1 sequence with A37G

[12] = target: T11, GST-dyn1xA-PRR 806-864 P816/819A (rat) (UniProt P21575)
T11 sequence: T1 sequence with P11A, P14A, A37G

[13] = target: T12, GST-dyn1xA-PRR 806-864 P841/844A (rat) (UniProt P21575)
T12 sequence: T1 sequence with P36A, A37G, P39A

[14] = target: T13, GST-dyn1xA-PRR S774/778E (rat) (UniProt P21575)
T13 sequence: T4 sequence with S29E, S33E, A68P, A71P

[15] = target: T14, GST-dyn1xA-PRR 806-864 R838A (rat) (UniProt P21575)
T14 sequence: T1 sequence with R33A, A37G

[16] = target: T15, GST-dyn1xA-PRR P816/819A (rat) (UniProt P21575)
T15 sequence: T4 sequence with A68P, P74A

[17] = target: T16, GST-dyn1xA-PRR R846A (rat) (UniProt P21575)
T16 sequence: T4 sequence with A68P, A71P, R101A

binding [1] | binding [2] | binding [3] | binding [4] | binding [5] | binding [6] | binding [7] | binding [8] | binding [9] | binding [10] | binding [11] | binding [12] | binding [13] | binding [14] | binding [15] | binding [16] | binding [17] | Substance
binds | binds weakly | binds | binds | binds | binds | no binding | binds | binds | binds | binds | binds | binds | binds | binds weakly | binds |  | Endophilin A1 (from UniProt O35179 1-352)
 |  |  |  |  | binds |  |  |  |  |  |  |  |  |  |  | binds | Syndapin 1 (from UniProt Q9Z0W5 1-441)

— publication PMC11329700
